# In the supplement of paper PMC8728848:
# Some of the results follow.
# B1: PX15618A-bth-503-24-503 (Bacteroides thetaiotaomicron) (protein)
# chain: NKSEDKLSGDDFWAQGNETNAEAFLLSIYNSFRNATMSQRPFLTYSGDMRCAPITAYSTGDKYVAYLANNDMGELRNTYPDDARGGLIMQWDVFYTAIQDANILLAEIDKVPGMDELKRSRFKAEAIFMRSLSYFFIVRAFGDVPYYTNAYNEAPLPRTNMVIVLQNCLADLQPLLDDDPGAEVLPWSYSSYSSKGIRASRGSVIALMMHINLWLVQFDAQNKEQYYRNVVSLGEELERNNGAYSLLDINRSSVIFAGGSDEGLFEIAQNINFNEIFMMNAKFSDNVSYSCLNKSMPLFCYSGDYLMTLFPMYEDDARKELWFDEKIYSTSVSSSAPKEIKKFWNIDTYGNGTITSNSGNQIVFRYAGALLLYAEALAALGTNDTKACELLNRVRNRAHASEINTSGSELMDAIFWERCRELIGEGHYYYDLVRTGKVYNRNYCMNPMTRTNFNVGAWTWPIHRNALKNNTQIGLNLFWE
# Tests used:
# Assay in all cases: glycan array binding signal (z-score within array); higher = stronger binding
# Conditions in all cases: glycan notation: IUPAC condensed, linker removed
# [1] = target: Fuc(a1-2)Gal(b1-4)GlcNAc(b1-3)Gal(b1-4)GlcNAc(b1-3)Gal(b1-4)GlcNAc
# Method in brief: (§1)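 From the Consortium for Functional Glycomics database, 3228 arrays were curated, keeping only those whose protein sequence was available. Binding is given as a within-array Z-score averaged across arrays sharing a protein sequence and across linkers. Negative Z-scores can be read as non-binding.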
# [2] = target: Fuc(a1-2)Gal(b1-4)GlcNAc(b1-3)GalNAc
# Method in brief: as §1
# [3] = target: Fuc(a1-2)Gal(b1-4)GlcNAc(b1-3)[Fuc(a1-2)Gal(b1-4)GlcNAc(b1-6)]GalNAc
# Method in brief: as §1
# [4] = target: Fuc(a1-2)Gal(b1-4)GlcNAc(b1-3)[Fuc(a1-3)[Gal(b1-4)]GlcNAc(b1-6)]Gal(b1-4)Glc
# Method in brief: as §1
# [5] = target: Fuc(a1-2)Gal(b1-4)GlcNAc(b1-6)GalNAc
# Method in brief: as §1
# [6] = target: Fuc(a1-2)Gal(b1-4)GlcNAc6S
# Method in brief: as §1
# [7] = target: Fuc(a1-2)Gal(b1-4)[Fuc(a1-3)]GlcNAc
# Method in brief: as §1
# [8] = target: Fuc(a1-2)Gal(b1-4)[Fuc(a1-3)]GlcNAc(b1-2)Man(a1-3)[Fuc(a1-2)Gal(b1-4)[Fuc(a1-3)]GlcNAc(b1-2)Man(a1-6)]Man(b1-4)GlcNAc(b1-4)[Fuc(a1-6)]GlcNAc
# Method in brief: as §1
# [9] = target: Fuc(a1-2)Gal(b1-4)[Fuc(a1-3)]GlcNAc(b1-2)[Fuc(a1-2)Gal(b1-4)[Fuc(a1-3)]GlcNAc(b1-4)]Man(a1-3)[Fuc(a1-2)Gal(b1-4)[Fuc(a1-3)]GlcNAc(b1-2)Man(a1-6)]Man(b1-4)GlcNAc(b1-4)GlcNAc
# Method in brief: as §1
# [10] = target: Fuc(a1-2)Gal(b1-4)[Fuc(a1-3)]GlcNAc(b1-3)Gal(b1-4)[Fuc(a1-3)]GlcNAc
# Method in brief: as §1
# [11] = target: Fuc(a1-2)Gal(b1-4)[Fuc(a1-3)]GlcNAc(b1-3)Gal(b1-4)[Fuc(a1-3)]GlcNAc(b1-3)Gal(b1-4)[Fuc(a1-3)]GlcNAc
# Method in brief: as §1
# [12] = target: Fuc(a1-2)Gal(b1-4)[Fuc(a1-3)]GlcNAc(b1-3)GalNAc
# Method in brief: as §1
# [13] = target: Fuc(a1-2)Gal(b1-4)[Fuc(a1-3)]GlcNAc(b1-3)[Neu5Ac(a2-6)Gal(b1-4)GlcNAc(b1-6)]Gal(b1-4)Glc
# Method in brief: as §1
# [14] = target: Fuc(a1-2)Gal3S(b1-4)GlcNAc
# Method in brief: as §1
# [15] = target: Fuc(a1-2)Gal6S(b1-3)GlcNAc
# Method in brief: as §1
# [16] = target: Fuc(a1-2)Gal6S(b1-3)GlcNAc6S
# Method in brief: as §1
# [17] = target: Fuc(a1-2)Gal6S(b1-4)Glc
# Method in brief: as §1
# [18] = target: Fuc(a1-2)Gal6S(b1-4)Glc6S
# Method in brief: as §1
# [19] = target: Fuc(a1-2)[Gal(a1-3)]Gal
# Method in brief: as §1
# [20] = target: Fuc(a1-2)[Gal(a1-3)]Gal(b1-3)GalNAc
# Method in brief: as §1
# [21] = target: Fuc(a1-2)[Gal(a1-3)]Gal(b1-3)GalNAc(b1-3)Gal(a1-4)Gal(b1-4)Glc
# Method in brief: as §1
# [22] = target: Fuc(a1-2)[Gal(a1-3)]Gal(b1-3)GlcNAc
# Method in brief: as §1
# [23] = target: Fuc(a1-2)[Gal(a1-3)]Gal(b1-3)GlcNAc(b1-2)Man(a1-3)[Fuc(a1-2)[Gal(a1-3)]Gal(b1-3)GlcNAc(b1-2)Man(a1-6)]Man(b1-4)GlcNAc(b1-4)GlcNAc
# Method in brief: as §1
# [24] = target: Fuc(a1-2)[Gal(a1-3)]Gal(b1-3)GlcNAc(b1-2)Man(a1-3)[Fuc(a1-2)[Gal(a1-3)]Gal(b1-3)GlcNAc(b1-2)Man(a1-6)]Man(b1-4)GlcNAc(b1-4)[Fuc(a1-6)]GlcNAc
# Method in brief: as §1
# [25] = target: Fuc(a1-2)[Gal(a1-3)]Gal(b1-3)GlcNAc(b1-3)GalNAc
# Method in brief: as §1
# [26] = target: Fuc(a1-2)[Gal(a1-3)]Gal(b1-3)GlcNAc(b1-6)GalNAc
# Method in brief: as §1
# [27] = target: Fuc(a1-2)[Gal(a1-3)]Gal(b1-4)Glc
# Method in brief: as §1
# [28] = target: Fuc(a1-2)[Gal(a1-3)]Gal(b1-4)GlcNAc
# Method in brief: as §1
# [29] = target: Fuc(a1-2)[Gal(a1-3)]Gal(b1-4)GlcNAc(b1-2)Man
# Method in brief: as §1
# [30] = target: Fuc(a1-2)[Gal(a1-3)]Gal(b1-4)GlcNAc(b1-2)Man(a1-3)[Fuc(a1-2)[Gal(a1-3)]Gal(b1-4)GlcNAc(b1-2)Man(a1-6)]Man(b1-4)GlcNAc(b1-4)GlcNAc
# Method in brief: as §1
binder,measurement,setting,value
B1,glycan array binding signal (z-score),[1],-0.13
same,glycan array binding signal (z-score),[2],-0.013
same,glycan array binding signal (z-score),[3],-0.488
same,glycan array binding signal (z-score),[4],-0.143
same,glycan array binding signal (z-score),[5],0.147
same,glycan array binding signal (z-score),[6],-0.172
same,glycan array binding signal (z-score),[7],-0.233
same,glycan array binding signal (z-score),[8],0.352
same,glycan array binding signal (z-score),[9],0.007
same,glycan array binding signal (z-score),[10],0.413
same,glycan array binding signal (z-score),[11],0.015
same,glycan array binding signal (z-score),[12],-0.411
same,glycan array binding signal (z-score),[13],-0.1
same,glycan array binding signal (z-score),[14],-0.301
same,glycan array binding signal (z-score),[15],0.13
same,glycan array binding signal (z-score),[16],-0.016
same,glycan array binding signal (z-score),[17],2.77
same,glycan array binding signal (z-score),[18],0.888
same,glycan array binding signal (z-score),[19],0.989
same,glycan array binding signal (z-score),[20],-0.377
same,glycan array binding signal (z-score),[21],0.64
same,glycan array binding signal (z-score),[22],0.041
same,glycan array binding signal (z-score),[23],-0.62
same,glycan array binding signal (z-score),[24],0.553
same,glycan array binding signal (z-score),[25],-0.259
same,glycan array binding signal (z-score),[26],0.076
same,glycan array binding signal (z-score),[27],-0.584
same,glycan array binding signal (z-score),[28],-0.343
same,glycan array binding signal (z-score),[29],0.353
same,glycan array binding signal (z-score),[30],0.482
